In PubChem BioAssay AID686978 (National Center for Advancing Translational Sciences (NCATS), 2013):
Hit rate of the full screen: of about 420,000 compounds, about 64,000 (15%) were called active. The inconclusive results got no clear call from the source; some entries with a clear call stand among them for comparison. Calls come from the whole dose curve; as a rule, active = well fitted inhibition curve with a large enough effect; inconclusive = small, poorly fitted or top-dose-only effect; inactive = flat fitted curve, though single readings scatter. Potencies of inconclusive entries are left out as doubtful fits.

Experiment: qHTS for Inhibitors of human tyrosyl-DNA phosphodiesterase 1 (TDP1): qHTS in cells in absence of CPT; note: nearly all actives have a fitted effect of over 55% in size
Conditions: DT40 Tdp1-/- hTDP1 cells, no CPT, ATP luminescence, 48 h; activity change, negative = growth inhibition: at 46.2 µM (top of the series) unless noted
Method in brief: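 Compound effects on proliferation are scored in DT40 Tdp1-/-;hTDP1 cells in the absence of CPT. ATP levels (CellTiter-Glo luminescence) are recorded after a ≥48 hr, 37 °C incubation.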
% is set by controls: 0 for no effect and ±100 for the full control effect; potency is the fitted concentration of half-maximal effect; tags give direction and shape of the fitted curve.

Row | Structure (SMILES) | Potency | activity change, negative = growth inhibition
1 | FC(F)(F)c1cccc(-c2cc3nc(NCCCn4ccnc4)ccn3n2)c1 | inconclusive [inhibitor, single point] | 
2 | CCOc1ccc(/C=N/NC(=O)Cc2ccccc2)cc1CN1CC2CC(C1)c1cccc(=O)n1C2 (stereo not given) | active: 20.6 µM | 
3 | O=C(Nc1ccc(Br)cc1)Nc1ccccc1Cl | active: 10.3 µM | 
4 | COc1cc2ccccc2cc1C(=O)Nc1ccc(Cl)cn1 | inconclusive [inhibitor, partial curve] | 
5 | COc1cc(Br)c(C(=O)c2nccc3cc(OC)c(OC)cc23)cc1OC | active: 18.4 µM | 
6 | Cc1ccccc1NC(=S)NC1CCN(Cc2ccccc2)CC1 |  | inactive: -37.6%
7 | C#CCNC(=O)C[C@@H]1C[C@@]2(C(=O)OC)CCCCC=C2N(Cc2ccc(Cl)cc2Cl)C1=O | active: 18.4 µM | 
8 | O=C(c1cc(-c2ccc(F)cc2)on1)N1CCN(c2ccc(F)cc2)CC1 | inconclusive [inhibitor, single point] | 
9 | CCCC1N=C2c3ccccc3N=C(SCC(=O)NCCc3ccc(Cl)cc3)N2C1=O (stereo not given) | inconclusive [inhibitor, single point] | 
10 | Nc1cc(N)cc(-c2nc3ccccc3[nH]2)c1 | active: 18.4 µM | 
11 | CCOC(=O)c1sc(NC(=O)CN2C(=O)NC3(CCCCCCC3)C2=O)c(C(=O)OCC)c1C | inconclusive [inhibitor, single point] | 
12 | O=c1[nH]cnc2sc3c(c12)CCC3 |  | inactive: -28.7%
13 | CC1(C)N=C(N)NC(Nc2ccc(Cl)cc2)=N1 |  | inconclusive: -31.4% [inhibitor]
14 | O=C(CCC(=O)N1CCCC1)Nc1ccc([N+](=O)[O-])cc1 |  | inactive: 2.85%
15 | COC(=O)C1=C(C)N(CCc2ccccc2)C(=O)/C1=C\c1ccco1 | inconclusive [inhibitor, single point] | 
16 | CCCCNS(=O)(=O)c1ccc2nc(-c3cccnc3)cc(C(=O)NC(C)C)c2c1 | inconclusive [inhibitor, single point] | 
17 | CC(C)C[C@H]1CN=C(N(C)C)N1CC1CCCC1 | inconclusive [inhibitor, single point] | 
18 | COc1ccc(/C(C)=N/Nc2nc3ccccc3nc2C)cc1OC | inconclusive [inhibitor, single point] | 
19 | O=C(CN1C(=O)c2cccc3cccc1c23)Nc1ccccc1Br |  | inactive: -12.4%
20 | CCN(CC)S(=O)(=O)c1cc(NC(=O)Cc2n[nH]c(=O)c3ccccc23)ccc1C | active: 13 µM | 
21 | COc1ccc(CNC(=O)c2ccc(-c3cccnc3)c3ccoc23)cc1OC | active: 18.4 µM | 
22 | Cn1nc(C(=O)N2CCN(c3ccccc3F)CC2)c2c1-c1ccccc1S(=O)(=O)C2 | inconclusive [inhibitor, single point] | 
23 | CCCC(=O)Nc1sc(C)c(-c2ccc(C(C)CC)cc2)c1C#N (stereo not given) | inconclusive [inhibitor, partial curve] | 

Row | Structure (SMILES) | Potency | activity change, negative = growth inhibition
24 | CCOC(=O)N1CCN(S(=O)(=O)c2ccc(C)cc2)CC1 |  | inactive: -15.5%
25 | COc1ccc(C)cc1NC(=O)c1cc(C2CC2)nc2c1c(C)nn2C1CCS(=O)(=O)C1 (stereo not given) | inconclusive [inhibitor, single point] | 
26 | Cc1ccc2[nH]c(C(=O)NCc3nc(-c4cccc(NC(=O)c5cc(C)oc5C)c4)oc3C)cc2c1 | inconclusive [inhibitor, partial curve, poor fit] | 
27 | Cc1ccc(-c2cccc([C@H]3[C@@H]4C=CC[C@@H](C)[C@@H]4C(=O)N3Cc3ccccc3)c2)cc1 | active: 20.6 µM | 
28 | O=C(N/N=C1\CCCCc2ccccc21)c1ccccn1 | inconclusive [inhibitor, single point] | 
29 | O=C(O)c1ccc(/C=N/NC(=O)c2cc(-c3ccc4c5c(cccc35)CC4)n[nH]2)cc1 | inconclusive [inhibitor, single point] | 
30 | CCN1C(=O)/C(=C/N2CCc3ccccc3C2)SC1=S | inconclusive [inhibitor, partial curve] | 
31 | COc1cc(/C=N/NC(=O)CCn2c3ccccc3c3ccccc32)ccc1O | active: 23.1 µM | 
32 | O=C(C[n+]1cccc(/C=N/O)c1)N(Cc1ccccc1)Cc1ccccc1 | inconclusive [inhibitor, partial curve, poor fit] | 
33 | Cc1cn([C@H]2C[C@H](O)[C@@H](CNCc3cc(Br)ccc3OCc3ccccc3)O2)c(=O)[nH]c1=O | inconclusive [inhibitor, single point] | 
34 | Cc1cc(C)c(-c2c(O)c3ccccc3n(C)c2=O)c(C)c1 |  | inactive: -15.9%
35 | Cc1ccc(CNC(=O)CS(=O)(=O)c2cn(CC(=O)N3CCOCC3)c3ccccc23)cc1 |  | inactive: 2.49%
36 | COc1ccc(-c2cc(C(=O)NCC3CCCO3)c3ccccc3n2)cc1 (stereo not given) | inconclusive [inhibitor, partial curve] | 
37 | Cc1cccc(C)c1N1CCN(c2n[nH]c(N)n2)CC1 | inconclusive [inhibitor, single point] | 
38 | CCOc1ccccc1NC(=O)N1CCC(C(=O)c2ccc(F)cc2)CC1 | inconclusive [inhibitor, single point] | 
39 | CCOC(=O)COc1ccc(C)cc1C(=O)c1ccn2nc(-c3ccc(Cl)cc3)cc2n1 | inconclusive [inhibitor, full curve, poor fit] | 
40 | CC1=NN(C(=O)c2c(Br)c(C)nn2C)C(O)(C(F)(F)F)C1 (stereo not given) | active: 1.03 µM | 
41 | Cc1ccc(OCCSc2nc3ccccc3n2CC(=O)O)cc1C |  | inactive: 1.29%
42 | COC(=O)C1=CN(Cc2ccc(OC)c(OC)c2)C=C(C(=O)OC)C1c1cccc(F)c1 | active: 18.4 µM | 
43 | Cc1ccc(Nc2nc3ccc(C(=O)c4ccccc4)cc3n3c(C)nnc23)c(C)c1 |  | inactive: -19.7%
44 | COc1cc(C2(c3ccc(O)c(OC)c3)C(=O)Nc3c(C)cc(Br)cc32)ccc1O |  | inactive: 0.116%
45 | O=C(OCc1ccccc1)/C(=C/c1cccc(Br)c1)NC(=O)c1ccco1 | inconclusive [inhibitor, single point] | 
